Laboratory results published in PubChem BioAssay AID1347417 (National Center for Advancing Translational Sciences (NCATS), 2020).
The campaign covered roughly 120,000 compounds. About 5,300 (4.4%) were called active. Inconclusive means that the source gave no clear call. Such entries were picked first, then a sample of the others. Calls follow the shape of the dose curve; as a rule, active = well fitted inhibition curve with a large enough effect; inconclusive = small, poorly fitted or top-dose-only effect; inactive = no such curve, though single readings can be large or run the other way. A potency beside an inconclusive call is a rough fit, not a confirmed value.
Potency is read from the fitted curve at half-maximal effect; tags tell the direction and shape of the fitted curve.

Test: qHTS Primary assay for Inhibitors of Plasmodium falciparum Dd2 growth in vitro; also: nearly all actives have a fitted effect of over 65% in size;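 as to activity, negative = inhibition: plate controls were DMSO vehicle for no effect and reference drug for full effect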
Details: P. falciparum Dd2 growth, SYBR Green, 72 h; activity, negative = inhibition: at 28.9 µM (top of the series) unless noted; series mostly up to 28.9 µM
How it was run: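 Infected erythrocytes (Dd2, 0.3% parasitemia, 2.5% hematocrit final) are added to compound in RPMI-1640/Albumax II medium, grown 72 h at 37C in low oxygen, then lysed with saponin/Triton-X containing SYBR Green and read by fluorescence.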
For `CN(C)c1ccc(CN2CCNc3cc(-c4ccccc4)ncc3C2)cc1`, the Potency was inconclusive: 15.8 µM [inhibitor, single point]. For `Brc1ccc(-c2ccnc3nc(-c4cccs4)nn23)s1`, the Potency was inconclusive: 1.58 µM [inhibitor, full curve, poor fit]. In the case of `COc1ccc(CCC(=O)N2CCC3(CC2)NC(=O)N(c2cccc(Cl)c2)N3)cc1`, the Potency is reported as inconclusive: 10 µM [inhibitor, single point]. In the case of `COc1ccc(C(=O)N2CCCC3(C2)C(=NC2CCCCC2)NC(=O)N3c2cccc(OC)c2)cc1` (stereo unspecified), the “activity, negative = inhibition” value is reported as inactive: 8.35%. In the case of `CC(=O)N(C1CC1)C1CCOC2(CCN(C(=O)c3cc(-c4ccccc4)n[nH]3)CC2)C1` (stereo unspecified), the “activity, negative = inhibition” value is reported as inactive: -17.4%. In the case of `COc1ccc(C2(C(=O)N3CCC4(CC3)c3nccn3-c3ccccc3CN4C)CC2)cc1`, the activity, negative = inhibition is reported as inactive: 20.5% [at 5.79 µM]. In the case of `COCCN1C(=O)c2ccccc2C(C(=O)Nc2ccc(F)cc2)C12CCCC2` (stereo unspecified), the Potency is reported as inconclusive: 7.94 µM [inhibitor, partial curve, poor fit]. With `CCn1c(CN2CCC(C)CC2)nc2cc(NC(=O)c3ccccc3[N+](=O)[O-])ccc21` the Potency was active: 11.2 µM. In the case of `CCOc1ncccc1C(=O)N1C[C@H](OCC)[C@@H](O)C1`, the “activity, negative = inhibition” value is reported as inactive: 2.41%. In the case of `O=C(NC1CCCCCCC1)c1nnn2c1COC(c1ccc(F)cc1)C2` (stereo unspecified), the Potency is reported as inconclusive: 3.16 µM [inhibitor, full curve, poor fit]. In the case of `CC(C)NC(=O)N[C@H]1CCN(C(=O)c2cnccn2)[C@@H]1C(=O)N[C@@H](CCCNC(=O)c1cnccn1)C(N)=O`, the “activity, negative = inhibition” value is reported as inactive: 5.68%. In the case of `CC(C)(C)c1ccc(NC(=O)O[C@@H]2CO[C@H]3[C@@H]2OC[C@@H]3Nc2nccc(-c3cccc(F)c3)n2)cc1`, the Potency is reported as inconclusive: 10 µM [inhibitor, single point]. With `Cc1nc(-c2c3n(c(=O)n(CC(=O)Nc4cccc(F)c4)c2=O)CCCCC3)no1` the “activity, negative = inhibition” value was inactive: 7.6%. In the case of `COc1cccc(-c2cn3c(n2)sc2cc(C(=O)NCc4cccs4)ccc23)c1`, the Potency is reported as inconclusive: 11.2 µM [inhibitor, single point]. For `Cc1ccc(SCCN(C)c2cc(C3CC(O)C3)nc(N)n2)cc1` (stereo unspecified), the Potency was active: 5.62 µM. With `COc1ccc(C(=O)N[C@@H]2CN(C(=O)Nc3ccc(F)cc3)CCC[C@H]2O)cc1` the Potency was inconclusive: 1.41 µM [inhibitor, partial curve, poor fit]. In the case of `COc1ccc(S(=O)(=O)NC[C@H]2C[C@@H]3CCN2C[C@@H]3CN2CCN(c3ccccn3)CC2)cc1`, the Potency is reported as inconclusive: 15.8 µM [inhibitor, single point]. With `Cc1ccccc1C(=O)N1CC2(Cc3ccccc3NC2=O)C1` the “activity, negative = inhibition” value was inactive: -4.35%. In the case of `CCC1Oc2ccc(NC(=O)c3ccc([N+](=O)[O-])cc3)cc2CN(Cc2ccccc2F)C1=O` (stereo unspecified), the “activity, negative = inhibition” value is reported as inactive: -12.9%. In the case of `C[S+](=O)([O-])c1ccc(-c2cnc3[nH]cc(CC(=O)N4CCOCC4)c3c2)cc1`, the “outcome” value is reported as “inactive [at 44.1 µM]”. With `CCCCNC(=O)c1cccc2c1CCN2C(=O)Nc1ccc(C)cc1` the Potency was inconclusive: 3.98 µM [inhibitor, partial curve, poor fit]. In the case of `CCC1Oc2ccc(NC(=O)c3c(F)cccc3F)cc2CN(Cc2ccc3c(c2)OCO3)C1=O` (stereo unspecified), the “outcome” value is reported as “inactive”. With `COc1ccc(/C=C/c2nc(-c3ccccc3O)n(-c3ccccc3)n2)cc1OC` the Potency was inconclusive: 12.6 µM [inhibitor, single point]. In the case of `Cc1cn2nc(C(=O)NCC3CCCCC3)cc2c(=O)[nH]1`, the Potency is reported as inconclusive: 17.8 µM [inhibitor, single point]. With `COC(=O)CCC(=O)N[C@H]1CO[C@H]2[C@@H]1OC[C@H]2OCc1ccccc1` the “activity, negative = inhibition” value was inactive: 23.7% [at 44.1 µM]. In the case of `CC1(C(=O)N2CCCC2)CCCc2cnc(Nc3ccccc3)nc21` (stereo unspecified), the “activity, negative = inhibition” value is reported as inactive: -5.39% [at 44.1 µM]. With `Cc1ccc(F)c(OCC(=O)c2ccc3c(c2)N(CCCC(=O)NCC2CCCO2)C(=O)CO3)c1` (stereo unspecified) the “outcome” value was “inactive”. With `Cc1cc(C)c(CNC(=O)c2cc(-c3cnn(C)c3C)cc3c2OCCN3C(C)C)c(=O)[nH]1` the Potency was inconclusive: 0.251 µM [inhibitor, partial curve, poor fit]. For `CC1CCN(C(=O)CN2CCSc3ccc(S(=O)(=O)N(C)C)cc32)CC1`, the Potency was inconclusive: 7.08 µM [inhibitor, single point]. In the case of `CCOc1ccccc1-c1noc(-c2nnn3c2COC(c2cccc(OC)c2)C3)n1` (stereo unspecified), the Potency is reported as inconclusive: 17.8 µM [inhibitor, single point]. For `O=C(NCC1CC1)C1CN(c2cccc(Cl)c2)C(=O)N1` (stereo unspecified), the Potency was inconclusive: 17.8 µM [inhibitor, single point]. For `O=C(NCCn1cc(SCc2ccc(C(F)(F)F)cc2)c2ccccc21)c1ccccc1F`, the Potency was inconclusive: 10 µM [inhibitor, single point]. With `Clc1ccccc1-c1cc(C2CCN(Cc3cc4n(n3)CCNC4)CC2)[nH]n1` the Potency was inconclusive: 20 µM [inhibitor, single point]. In the case of `O=C(NCc1ccc(F)cc1)N1CCC(c2noc(-c3ccccn3)n2)C1` (stereo unspecified), the Potency is reported as inconclusive: 0.316 µM [inhibitor, single point]. For `COc1ccc(NC(=O)c2cnc3c(c2)N(C(=O)Cc2cccc(C(F)(F)F)c2)CCC3)cc1OC`, the Potency was inconclusive: 8.91 µM [inhibitor, partial curve, poor fit]. In the case of `COc1cc2c(cc1CNC(=O)Cn1nc(C)n(Cc3ccccc3)c1=O)CCC2`, the Potency is reported as inconclusive: 3.55 µM [inhibitor, single point]. For `COc1ccc(NC(=O)CCc2nc3cccnc3n2Cc2cccs2)c(OC)c1`, the Potency was inconclusive: 8.91 µM [inhibitor, single point]. In the case of `COc1ccccc1C(=O)N1CCC(C(NC(=O)c2ccccc2C)C(=O)N2CCCC2)CC1` (stereo unspecified), the Potency is reported as inconclusive: 12.6 µM [inhibitor, partial curve, poor fit]. For `CCCS(=O)(=O)N1C[C@@H](COC)[C@H](c2nc(C)no2)C1`, the Potency was inconclusive: 0.251 µM [inhibitor, full curve]. For `O=C(NC1CC1)c1ccccc1OCC1CCCN(Cc2cccc3[nH]ccc23)C1` (stereo unspecified), the Potency was inconclusive: 1.58 µM [inhibitor, partial curve]. For `COCCN1C(=O)CO[C@H]2CN(CCCc3ccccc3)C[C@H]21`, the Potency was inconclusive: 2.51 µM [inhibitor, partial curve]. In the case of `COc1ccc(-n2nc(C3CCN(C(=O)c4ccccc4C)CC3)[nH]c2=O)cc1`, the Potency is reported as inconclusive: 8.91 µM [inhibitor, single point]. In the case of `COc1ccccc1C(O)c1nc(Nc2ccc(C(F)(F)F)cc2)n[nH]1` (stereo unspecified), the Potency is reported as inconclusive: 5.62 µM [inhibitor, single point]. For `CCN(Cc1ccccc1)C(=O)CC1CCCN(c2cnn(CC)c(=O)c2)C1` (stereo unspecified), the “activity, negative = inhibition” value was inactive: -17.5%. With `CCOc1ccc(NC(=O)CCn2c(-c3ccc(F)cc3)cc(C(C)=O)c2C)cc1` the “outcome” value was “inactive”. In the case of `O=C1N(C2CCNCC2)C(c2ccccc2)C12CCCC2` (stereo unspecified), the Potency is reported as active: 5.01 µM. With `CC(C)(O)CCc1ccc(C(=O)NCc2noc(-c3ccco3)n2)cc1` the Potency was inconclusive: 12.6 µM [inhibitor, single point]. In the case of `Cc1nn2c(c1-c1ccccc1C(C)C)N(C(=O)c1cc3ccccc3n1C)CCC2`, the Potency is reported as inconclusive: 5.01 µM [inhibitor, single point]. For `COCCCNc1ccc2nnc(-c3ccccn3)n2n1`, the “activity, negative = inhibition” value was inactive: 4.66% [at 44.1 µM]. In the case of `CSCC(=O)N1C[C@@H](NC(=O)NC(C)C)C[C@H]1C(=O)N[C@@H](Cc1cccs1)C(N)=O`, the “activity, negative = inhibition” value is reported as inactive: 17.6%. In the case of `COc1ccccc1CC(=O)N1CCC(Cc2nc(-c3ccc(F)cc3)no2)CC1`, the Potency is reported as inconclusive: 11.2 µM [inhibitor, single point]. For `Cc1nc(-c2ccccc2)cc([C@H]2CN3CC[C@H]2C[C@@H]3CN(Cc2ccco2)Cc2ccco2)n1`, the Potency was active: 1.12 µM. With `COc1ccc(C(=O)NCc2nnc3cc(-c4nc(C)no4)ccn23)cc1F` the “activity, negative = inhibition” value was inactive: -4.26%. With `Cc1noc(Cn2c(=O)c3cc4c(cc3n(CC(=O)Nc3ccc(C(C)C)cc3)c2=O)OCO4)n1` the Potency was active: 12.6 µM. In the case of `Cc1cnc(C(=O)N2C[C@H]3OC(=O)N(CCc4cccc(Cl)c4)[C@H]3C2)[nH]1`, the “activity, negative = inhibition” value is reported as inactive: -7.81%. For `O=C1c2cnc(-c3ccsc3)nc2OCCN1c1ccccc1`, the Potency was inconclusive: 8.91 µM [inhibitor, partial curve, poor fit]. With `Cc1cccc(C(=O)N2CCC[C@H]2c2nc(-c3ccccc3Cl)no2)c1` the Potency was inconclusive: 8.91 µM [inhibitor, single point]. For `COc1cc(C2CC(=O)N(c3ccc(C)c(Cl)c3)C3=C2C(=O)OC3)cc(OC)c1OC` (stereo unspecified), the Potency was inconclusive: 17.8 µM [inhibitor, single point]. With `COc1ccc(-c2cc(C[C@H]3CNCC[C@H]3CC(=O)Nc3ccccc3)no2)cc1` the Potency was inconclusive: 12.6 µM [inhibitor, single point]. In the case of `CN1CCN(c2cc(N3CCCC(CO)(CC4CC4)C3)nc(N)n2)CC1` (stereo unspecified), the “activity, negative = inhibition” value is reported as inactive: -3.08%. In the case of `CNC(=O)C(C)(C)N1CCC[C@H]1C(=O)N[C@@H](CO)CC(C)C`, the “activity, negative = inhibition” value is reported as inactive: -9.75% [at 44.1 µM]. For `CCNc1cc(N2CCC(CCC(=O)O)CC2)ncn1`, the “outcome” value was “inactive”. In the case of `Fc1ccc(Nc2nc(SCc3ccc(Cl)cc3)nc3ccccc23)cc1`, the Potency is reported as inconclusive: 12.6 µM [inhibitor, single point]. With `CC[C@H]1CN2CC[C@H]1C[C@@H]2CNC(=O)Nc1cccc(C(F)(F)F)c1` the Potency was inconclusive: 31.6 µM [inhibitor, single point]. For `Cc1cccc(OC[C@H]2C[C@@H](NCc3cccc4c3OCO4)[C@H](O)[C@@H]2O)n1`, the Potency was inconclusive: 11.2 µM [inhibitor, single point]. In the case of `CC(=O)N1CCN(C(=O)[C@@]23CCCC[C@H]2N(CCC(C)C)C(=O)CC3)CC1`, the Potency is reported as inconclusive: 1.58 µM [inhibitor, partial curve, poor fit].
